# Test results taken from the supplement of paper PMC11417369.
# The other results are listed elsewhere or left out.
# System: PfHDP1 homeodomain (GST-tagged)
# Experiment: gcPBM binding intensity (ln(normalized median fluorescence intensity)); higher = stronger DNA binding
# In short: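 DNA-binding domains from P. falciparum, fused to GST and produced in E. coli, were put on an Agilent 4 × 180k double-stranded probe array for 1 h in 1× PBS holding 1% milk, 0.2 mg/ml BSA, 0.5% salmon testes DNA and 0.03% Triton X-100. Probes were primer-extended, 36 bp long and drawn from intergenic genomic regions, with negative controls included. After Alexa488 anti-GST antibody detection and a 488 nm scan, binding intensity was set as the highest Masliner-normalised natural-log median intensity across replicate spots of either probe orientation.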
row,Sequence,gcPBM binding intensity (ln)
1,TAATGTATTATTTAATGTACTTAAAAAATAAATAAA [XGTACX_site3296],6.1
2,AATGAACAGACGAGCACACACACACCCATATATATA [CACACA_site1018],6.99
3,ACCTTTAATAAATACACACACATAAAAAAAATATAT [CACACA_site5086],8.21
4,CACAAATATATACATACACACATATATACGCATATA [CACACA_site395],6.8
5,GGGGAGCTATCTCCTGCACACACAATTTTTTTTTTT [CACACA_site8703],8.18
6,TATTATATGAATAATTGTACGAAATTTAAAAGACAA [XGTACX_site7558],6.74
7,AATGAAAAGAAATAATAAATAAATGATGACCAGCTG [GTGCAC_negctrl_site398],6.54
8,TGATTATCCTTCAGGAGTACATATAATATAATATAT [XGTACX_site1479],6.51
9,AAAAACAAAATTTGGAGTACAGTTATAATATTATTA [XGTACX_site5245],6.74
10,TTATAAAGAAAAAATTGCTTTAAAAGAAAGATTACA [CACACA_negctrl_site960],5.87
11,ATATATATATGAATCACACACAAAAAATATAGAGAT [CACACA_site3913],8.27
12,GCACCAAAAAAAAGACGTACAGTTATATTAAAATAG [XGTACX_site8926],6.7
13,AAATGAACAAGTGGCACACACACATTCTAACTAATT [CACACA_site3203],6.45
14,AACCAAATTTCACCATGTACATATTGATAAATATAT [XGTACX_site1374],6.62
15,ATATGATTTGGATGTAGTACATATTTTTTTATGTTT [XGTACX_site1929],6.49
16,TAAAATAATATATGGTGTACACAAAAGTATAAATAA [XGTACX_site4991],7.26
17,AAAAAAATAATTAACACACACATGTATATCTATATA [CACACA_site3139],6.3
18,ATATAAAAAAAATTTAGTACATATATATATATATAT [XGTACX_site8635],9.33
19,TATATATATATATTATGTACTCATTTATTATCTTTT [XGTACX_site8051],8.95
20,CGGGGGTAGTTTTATGCACACGTTTATTAATGCTTC [CACACA_site5717],10.5
21,ACCAATAATATACATACACACATAAATGTTTATATA [CACACA_site4328],6.77
22,ACATGAATATATACACGTACATATATACATATATAT [XGTACX_site5872],6.57

row,Sequence,gcPBM binding intensity (ln)
1,TGAAAAACTATCAGAGTGCATATATAGCTCGATACA,7.91
2,TTTTATGTTTATGTGGTGCATGTTTTGAAGAAAATA [GTGCAC_site9616],8.94
3,TATAAACCGACGAAAACACACATATGTAAATATATA [CACACA_site491],6.87
4,AAACCTATGTATATTATACACACTCCAAACTATTAT [CACACA_site8536],6.86
5,ATTACCATATTTTGTACACACATCTTTATCTCAATA [CACACA_site3217],7.45
6,TAAAAATTAAAGTGTACACATATATATATATATATA [CACACA_site4781],9.37
7,AAAAAAAAAAAGCACACACACATATGCGTATATATA [CACACA_site954],6.55
8,TTATTAAAGGAAAAATGTACATATAAATGAATATGT [XGTACX_site23],6.19
9,GAAAAAAAACACATTGTGCACTTTTCCTTAAGTATA [GTGCAC_site9475],8.51
10,ATTAAATATATTTTGCGTACACAAAAAAATACGTTC [XGTACX_site3862],6.77
11,ATAATATTTTATGGTTGTACTTTTAGTTCTTTTTTT [XGTACX_site5756],6.41
12,TACGTGAAGTTATATACACACATAAATATGTCTGTA [CACACA_site7463],6.59
13,TTAAAGTATAACTGTACATGCGAGTAAAAGAATGAC [TGCATGCA_site899],7.57
14,GGAGAAAAAAAAAAAAAACACACGGTACATTCAAAG [CACACA_site1503],6.32
15,TTTTTTTCGTATATTACACACTATATATAGAAATTA [CACACA_site298],6.61
16,TATGTTTTTCGGTATGCATGCATATGCTTAATAATA [TGCATGCA_site184],7.03
17,AATATTAAACAAATGAAAAAAAAATATATATTATAT [CACACA_negctrl_site742],6.55
18,TTTAATTAAAATATATGTACATATATATATATATAT [XGTACX_site4517],9.42
19,AATATATATATGATTATATATATATATATATATATA [GTGCAC_negctrl_site290],9.41
20,AAAATAACACAAATGGGTACATATTATATTAAATAA [XGTACX_site7027],6.3
21,AAATTATCCAAAAATTGTACTTAAAACAACATAAAA [XGTACX_site6238],6.18
22,AAAGAAGGTAAACACACACACACACCGACAAAAAAA [CACACA_site9255],6.78

row,Sequence,gcPBM binding intensity (ln)
1,ACCATTTGTAGGTAAACACACATTATTCTTAATATC [CACACA_site5453],6.37
2,TTTCTCTTATTCCAATCTATAATAAGTATCAATATT [CACACA_negctrl_site179],6.55
3,ATATATTCATTTTTATGTACGTAAATTGTAAATTGG [XGTACX_site8242],6.8
4,AAAATAATAATAAAAAGTACATGTGTATATAATAAA [XGTACX_site754],7.25
5,TGCATTATTTTATGAAGTACATATGAACAAAAAATT [XGTACX_site2185],6.5
6,AACACCCAAAAACACACACACATACATACATACATA [CACACA_site4411],6.81
7,AACATTAATTTCCTATGTACTTAATATATTGTTTTT [XGTACX_site4440],6.56
8,ATTTATATATATGTATGTACGTATGTGTGTATATGT [XGTACX_site7587],7.82
9,CTTTCCCTATATTGCTGTACATGTATTCAAAAAACA [XGTACX_site353],7.01
10,CGCGAACATACATACACACACATATATATATCTGTA [CACACA_site4277],6.98
11,TACACAAAAATAAACACACACACATATATATATATA [CACACA_site1000],9.26
12,TATATATTCCTCCATAGTACAATAATAAAGATAAAA [XGTACX_site5785],6.47
13,ACCAATTTGACAAACTGTACAAAAAAAATATTAAAA [XGTACX_site1186],6.24
14,TTTTATAAAGAACACAGACACACAAAGAAAGAACCA [CACACA_site4174],7.07
15,ATAAAAAGCTAAAAAGTGCAAAAAGTAAATATTTAA,8.61
16,TTTATTTAAAATAAGTGTACTAGAAAAATTAAGCAG [XGTACX_site4982],6.85
17,ATTCCTCATTAATATTCTTATTTTTTAATTCACATT [XGTACX_negctrl_site329],6.72
18,TAAAAGGAGACATATACACACATATATATATATATA [CACACA_site5539],9.29
19,TGTGATTATGATAAAAGTACAGAAATAAATATACTA [XGTACX_site38],6.15
20,TTATGTATATTATAAATTAATACCTTTAAATTAATA [CACACA_negctrl_site67],5.95
21,ATAATCCTGAAACACACACACACACCCATAAATAAA [CACACA_site481],6.92
22,TATAACTTATTTTTTAGTACATATTATAGTTCATTT [XGTACX_site8649],6.32

row,Sequence,gcPBM binding intensity (ln)
1,TATATATACTTAGAAACACACAAAAATATTTTATAA [CACACA_site2578],6.55
2,TAATTAGTTTTTACTTTTTTTTTTTTTTTTCTATAT [CACACA_negctrl_site1024],5.76
3,TATTATAAATAAATAGAAAAAAAAATGATAAATGGA [CACACA_negctrl_site865],6.48
4,ATAATAAATACACTAGTGCAAAATAATATATGTACT [GTGCAC_site9707],9.79
5,TTTATTTATATAATTACACACATATATACTCAAATG [CACACA_site5543],6.67
6,ATATGTACTATACGCACACACACTCACATATTTATA [CACACA_site7510],8.15
7,ATAGGGTTTCTACTTTAACATTTTTGAAATATTATA [GTGCAC_negctrl_site260],6.53
8,TTCTTAATTCATACCATCAAAACATTTATTCATATC [CACACA_negctrl_site43],6.3
9,TAAAAATGATCAAAGGGTACAGTATTAATTAAAAAA [XGTACX_site1079],6.5
10,TTTACTTTTTTTATATATTATTTATTATATAATATA [CACACA_negctrl_site211],6.48
11,CTTAAACTTTTAAATACACACATACAGACATACACA [CACACA_site6401],6.92
12,TACATATATATAATATATATATCATCATATTTTCTT [XGTACX_negctrl_site478],6.39
13,ATATACAGAAAAAATTAAAATAAATATGCAAAACAA [CACACA_negctrl_site704],7.47
14,AATATACGATTGTCATTCATACATTGTTAACATAGT [CACACA_negctrl_site1151],6.42
15,TACAATGAACATGAAACACACAAAAAAAAAAAAAAA [CACACA_site1544],6.52
16,ACATAGTAAATATTATGTACATAATATATACATTTA [XGTACX_site7500],6.46
17,TTTTGCCTGAACAATGCATGTTATTTTTATTTTTTT [TGCATGCA_site673],6.66
18,TCATTTAAGTCATATTGAAATATGCATTATTCAAAA [CACACA_negctrl_site958],6.41
19,TTTATATTTCATTTGTTATTTTTCTTGGTTCTATAT [TGCATGCA_negctrl_site23],6.6
20,TTTTTTTTTTTTTTTTTTATATTTCATAATTTCATT [XGTACX_negctrl_site579],6.22
21,AATATATACACATGCGCACACACAAGTGGGAAATTT [CACACA_site8527],7.72
22,AAATGTGTTAATGTGCGTACACATATATATAATATT [XGTACX_site2792],6.66
